Values joined by “and” are separate entries in the source; they are usually repeats but may differ in a detail not shown here. Equal entries are not always repeated. Out of some 360,000 compounds screened, about 16,000 (4.4%) were called active. The shares of active, inactive and inconclusive entries below differ from those in the screen. Calls come from the whole dose curve; as a rule, active = well fitted inhibition curve with a large enough effect; inconclusive = small, poorly fitted or top-dose-only effect; inactive = no such curve, though single readings can be large or run the other way. A potency beside an inconclusive call is a rough fit, not a confirmed value.
Each molecule was assayed against Bromodomain adjacent to zinc finger domain protein 2B (Homo sapiens) (UniProt Q9UIF8) (assay: qHTS Assay for Inhibitors of BAZ2B). Conditions: AlphaScreen BAZ2B-H3K14Ac peptide displacement; activity change, negative = inhibition: at 114 µM (top of the series).
Sequence of UniProt Q9UIF8 (Q9UIF8 whole entry, looked up, the tested form may be a part): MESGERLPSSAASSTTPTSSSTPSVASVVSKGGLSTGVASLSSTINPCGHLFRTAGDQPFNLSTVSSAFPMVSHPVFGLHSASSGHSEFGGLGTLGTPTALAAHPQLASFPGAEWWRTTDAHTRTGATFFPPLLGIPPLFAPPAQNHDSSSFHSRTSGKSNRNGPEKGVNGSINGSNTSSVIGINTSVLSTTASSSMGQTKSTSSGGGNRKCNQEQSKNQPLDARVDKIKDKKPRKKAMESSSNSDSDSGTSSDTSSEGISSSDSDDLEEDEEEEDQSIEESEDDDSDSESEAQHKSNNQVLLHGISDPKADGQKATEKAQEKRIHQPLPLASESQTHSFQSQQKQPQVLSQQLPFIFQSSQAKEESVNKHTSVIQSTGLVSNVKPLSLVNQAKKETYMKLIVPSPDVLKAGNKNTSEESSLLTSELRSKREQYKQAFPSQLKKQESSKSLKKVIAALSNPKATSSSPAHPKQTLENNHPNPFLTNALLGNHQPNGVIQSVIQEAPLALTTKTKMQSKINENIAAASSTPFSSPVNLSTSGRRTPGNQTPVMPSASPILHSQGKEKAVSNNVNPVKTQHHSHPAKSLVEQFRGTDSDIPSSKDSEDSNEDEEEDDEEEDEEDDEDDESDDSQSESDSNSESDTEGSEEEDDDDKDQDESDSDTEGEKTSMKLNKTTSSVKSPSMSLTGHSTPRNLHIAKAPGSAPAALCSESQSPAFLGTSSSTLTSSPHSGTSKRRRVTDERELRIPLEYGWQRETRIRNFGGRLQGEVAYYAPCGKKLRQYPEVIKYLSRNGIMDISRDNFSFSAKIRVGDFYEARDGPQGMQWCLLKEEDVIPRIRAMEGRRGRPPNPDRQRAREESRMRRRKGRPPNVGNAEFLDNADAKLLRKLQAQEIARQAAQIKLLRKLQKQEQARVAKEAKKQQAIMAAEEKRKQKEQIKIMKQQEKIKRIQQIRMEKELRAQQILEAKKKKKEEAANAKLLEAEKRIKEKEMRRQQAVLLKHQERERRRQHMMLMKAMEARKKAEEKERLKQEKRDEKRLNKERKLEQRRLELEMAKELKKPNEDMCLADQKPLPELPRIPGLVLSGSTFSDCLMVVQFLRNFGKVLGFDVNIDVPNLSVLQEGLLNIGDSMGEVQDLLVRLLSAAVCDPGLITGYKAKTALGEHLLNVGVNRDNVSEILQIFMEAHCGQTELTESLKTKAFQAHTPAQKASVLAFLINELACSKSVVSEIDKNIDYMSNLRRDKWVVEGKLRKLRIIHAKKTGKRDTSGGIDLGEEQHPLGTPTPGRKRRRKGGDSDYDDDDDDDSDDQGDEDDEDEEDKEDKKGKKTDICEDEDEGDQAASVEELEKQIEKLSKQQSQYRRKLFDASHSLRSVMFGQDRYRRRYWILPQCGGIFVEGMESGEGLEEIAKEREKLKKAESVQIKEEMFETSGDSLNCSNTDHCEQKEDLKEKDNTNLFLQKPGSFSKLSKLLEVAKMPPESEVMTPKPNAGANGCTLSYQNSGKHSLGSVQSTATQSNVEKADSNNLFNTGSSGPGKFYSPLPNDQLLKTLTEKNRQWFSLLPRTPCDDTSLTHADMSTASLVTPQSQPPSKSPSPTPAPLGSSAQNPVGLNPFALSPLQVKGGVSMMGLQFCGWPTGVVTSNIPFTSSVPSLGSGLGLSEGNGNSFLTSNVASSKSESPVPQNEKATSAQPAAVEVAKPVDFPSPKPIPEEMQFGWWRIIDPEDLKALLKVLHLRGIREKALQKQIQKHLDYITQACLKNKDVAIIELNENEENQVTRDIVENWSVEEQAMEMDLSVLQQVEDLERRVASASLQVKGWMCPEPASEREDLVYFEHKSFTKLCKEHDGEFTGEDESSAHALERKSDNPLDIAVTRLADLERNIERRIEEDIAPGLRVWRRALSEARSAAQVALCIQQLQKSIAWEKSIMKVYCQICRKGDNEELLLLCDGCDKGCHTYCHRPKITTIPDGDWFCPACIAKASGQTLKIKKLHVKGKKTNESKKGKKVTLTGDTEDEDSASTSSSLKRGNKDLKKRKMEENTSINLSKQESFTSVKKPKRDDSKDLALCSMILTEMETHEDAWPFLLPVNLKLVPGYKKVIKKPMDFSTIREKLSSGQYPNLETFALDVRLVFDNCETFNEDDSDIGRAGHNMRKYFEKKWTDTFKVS
Procedure, shortened: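 Multi-concentration screen (max 110 uM) measuring displacement of acetylated histone H3 peptide from BAZ2B by AlphaScreen, using 50 nM protein, 50 nM peptide and 10 ug/mL streptavidin donor plus Ni-chelate acceptor beads.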
In the case of `C[C@@H](O)C1NC(=O)[C@H](CCCCN)NC(=O)c2cc([N+](=O)[O-])cc(I)c2OCC[C@@H](C(N)=O)NC1=O` (some centres not stated), the Potency is reported as inconclusive: 89.1 µM [inhibitor, single point]. With `COc1ccc(CCn2c3c(c(=O)[nH]c2=O)C(NC(=O)c2ccc(C(C)(C)C)cc2)(C(F)(F)F)C(=O)N3)cc1OC` (configuration not stated) the “activity change, negative = inhibition” value was inactive: -6.53%. For `COc1ccccc1Cc1nc2ccccc2nc1SCC(=O)N1CCN(c2ccccc2)CC1`, the Potency was inconclusive: 3.16 µM [inhibitor, full curve, poor fit]. In the case of `COc1ccc(N2CCN(Cc3nnc(-c4cccc(Br)c4)o3)CC2)cc1`, the Potency is reported as active: 44.7 µM. In the case of `CN(C)CCCN(C(=O)c1ccc(S(=O)(=O)N2CCCCCC2)cc1)c1nc2ccc(Br)cc2s1`, the Potency is reported as active: 28.2 µM. In the case of `COc1ccc(NC(=O)CNC(c2ccccc2)c2ccccc2)cc1`, the Potency is reported as active: 79.4 µM. With `COc1ccc(N2CCN(C(=O)CCc3c[nH]c4ccccc34)CC2)cc1` the Potency was inconclusive: 35.5 µM [inhibitor, partial curve]. In the case of `CN(C)CCNc1oc(-c2ccc(COc3ccc(Cl)cc3)o2)nc1C#N`, the Potency is reported as inconclusive: 35.5 µM [inhibitor, partial curve]. In the case of `COc1ccc(-n2cnc3cc(NCc4ccco4)ccc32)cc1`, the Potency is reported as inconclusive: 70.8 µM [inhibitor, single point]. For `O=C(COc1cc(Cl)c(Cl)cc1Cl)NCCc1ccccn1`, the Potency was inconclusive: 79.4 µM [inhibitor, partial curve, poor fit]. With `COC(=O)c1scc(-c2ccc(C)cc2)c1S(=O)(=O)N1CCN(c2ccccc2)CC1` the Potency was inconclusive: 89.1 µM [inhibitor, single point]. `CN(C)CCCN(C(=O)c1ccc(C(=O)c2ccccc2)cc1)c1nc2cc3c(cc2s1)OCCO3` was tested, and the Potency was active: 31.6 µM. In the case of `CC(C)n1c(SCC(=O)Nc2nncs2)nnc1-c1ccco1`, the Potency is reported as active: 50.1 µM. `Cc1cc(C)c(OCCCNCc2ccccc2)c(Br)c1` was tested, and the Potency was active: 50.1 µM. For `CCOC(=O)c1c(C)[nH]c(C)c1S(=O)(=O)NCC(=O)Nc1cccc(C#N)c1`, the “activity change, negative = inhibition” value was inactive: -1.63%. In the case of `COc1ccc(S(=O)(=O)N2CCC(C(=O)Nc3ccccc3)CC2)cc1OC`, the “activity change, negative = inhibition” value is reported as inactive: 3.2%. With `COc1cc([N+](=O)[O-])ccc1NC(=O)CC1SC(=Nc2ccc(F)cc2)N(CCC2=CCCCC2)C1=O` (configuration not stated) the Potency was inconclusive: 79.4 µM [inhibitor, single point]. With `Cc1ccc(CSc2ncnc3c2cnn3-c2ccc(C)cc2)cc1` the “activity change, negative = inhibition” value was inactive: 10.1%. For `CC(=O)c1c(C)nc(-c2ccccc2)n1O`, the Potency was inconclusive: 79.4 µM [inhibitor, single point]. In the case of `Clc1nc(Cl)nc(N(c2ccccc2)c2ccccc2)n1`, the Potency is reported as active: 79.4 µM. `O=C1C(=O)N(c2ccccc2)C(c2ccccc2[N+](=O)[O-])/C1=C(\O)c1ccccc1` (configuration not stated) was tested, and the Potency was inconclusive: 89.1 µM [inhibitor, single point]. `CC(=O)C1=C(C)NC(SCC(=O)c2ccc(-c3ccccc3)cc2)=C(C#N)C1c1cccnc1` (configuration not stated) was tested, and the “activity change, negative = inhibition” value was inactive: -21.6%. For `O=S1(=O)CC/C(=N\Nc2ccccc2)c2ccsc21`, the Potency was inconclusive: 50.1 µM [inhibitor, partial curve]. With `Cc1ccc(CN2CCC(=O)N2)cc1` the Potency was inconclusive: 79.4 µM [inhibitor, single point]. For `CCc1cc2c(COC(=O)c3cccc(S(C)(=O)=O)c3)cc(=O)oc2cc1O`, the Potency was inconclusive: 79.4 µM [inhibitor, single point]. In the case of `CCC(=O)NC(c1cc(Cl)c2cccnc2c1O)C(C)C` (configuration not stated), the Potency is reported as active: 56.2 µM and active: 79.4 µM. In the case of `COc1ccc2ncc(S(=O)(=O)c3ccccc3)c(N3CCN(c4ccccc4)CC3)c2c1`, the Potency is reported as inconclusive: 35.5 µM [inhibitor, full curve]. For `Cc1c(NC(=S)N/N=C/C=C/c2ccccc2)c(=O)n(-c2ccccc2)n1C`, the Potency was inconclusive: 25.1 µM [inhibitor, full curve]. With `COC(=O)c1ccccc1S(=O)(=O)N(CCCN1CCOCC1)Cc1cccs1` the Potency was active: 50.1 µM. `O=C(COC(=O)/C=C/c1ccc(Br)o1)Nc1ccc2[nH]c(=O)[nH]c2c1` was tested, and the Potency was inconclusive: 63.1 µM [inhibitor, partial curve, poor fit]. `C/C=C/C(=O)N1c2ccc(C)cc2C(C)=CC1(C)C` was tested, and the Potency was inconclusive: 79.4 µM [inhibitor, partial curve]. With `COc1ccccc1N1CCN(C(=O)/C=C/c2cccs2)CC1` the Potency was inconclusive: 89.1 µM [inhibitor, single point]. With `Cc1ccccc1C(=O)NC(=S)Nc1sc2c(c1C#N)CCC(C)C2` (configuration not stated) the Potency was inconclusive: 79.4 µM [inhibitor, single point]. `COCCCn1c(SCC(=O)NC2CCCC2)nnc1-c1cccs1` was tested, and the “activity change, negative = inhibition” value was inactive: 5.35%. In the case of `Cc1cccc(-c2noc(-c3cccnc3NCc3ccc(Cl)cc3)n2)c1`, the Potency is reported as inconclusive: 89.1 µM [inhibitor, single point]. For `CCOC(=O)c1c(NC(=O)COC(=O)Cn2c(C)nc3ccccc32)sc2c1CCCC2`, the “activity change, negative = inhibition” value was inactive: -7.04%. With `CC(C)Oc1cccc(C(=O)C2CCCN(C(=O)c3csnn3)C2)c1` (configuration not stated) the Potency was inconclusive: 89.1 µM [inhibitor, single point]. In the case of `NC(=O)C1CCN(c2nc(-c3ccccc3F)cs2)CC1`, the Potency is reported as inconclusive: 89.1 µM [inhibitor, single point]. For `O=C(/C=C/c1cccnc1)/C=C/c1cccnc1`, the “activity change, negative = inhibition” value was inactive: -16.3%. With `O=C(CN(Cc1ccc(F)cc1)C(=O)c1csnn1)NC1CCCC1` the “activity change, negative = inhibition” value was inactive: -3.58%. With `CCN(CC)c1ccc(NC(=O)Nc2ccccc2)cc1` the Potency was inconclusive: 39.8 µM [inhibitor, full curve]. `COc1ccc(S(=O)(=O)N2CCN(Cc3ccc(Cl)cc3)CC2)cc1` was tested, and the Potency was inconclusive: 89.1 µM [inhibitor, single point]. In the case of `COc1ccc(Cl)cc1NC(=O)C(C)Sc1nc2c(c(=O)[nH]1)CCCC2` (configuration not stated), the “activity change, negative = inhibition” value is reported as inactive: -2.65%. In the case of `O=S(=O)(c1ccccc1)N1CCSC1c1ccco1` (configuration not stated), the Potency is reported as inconclusive: 79.4 µM [inhibitor, single point]. With `CC1(C)O[C@H]2[C@@H](O1)[C@@H](C(=O)Nc1ccccc1C(F)(F)F)O[C@@H]1OC(C)(C)O[C@@H]12` the “activity change, negative = inhibition” value was inactive: -1.69%. With `Cc1ccc(S(=O)(=O)N2CCCCC2)cc1C(=O)NCCC1=CCCCC1` the “activity change, negative = inhibition” value was inactive: 8.96%. For `Cc1cc(Cl)ccc1NC(=S)NCc1ccc(S(N)(=O)=O)cc1`, the Potency was inconclusive: 89.1 µM [inhibitor, single point]. With `Cn1nc(C(=O)Nc2cccnc2)c2ccccc2c1=O` the “activity change, negative = inhibition” value was inactive: -4.24%. For `O=C(CCC1N=C2c3ccccc3N=C(SCc3ccc(F)cc3)N2C1=O)NCCc1ccccc1` (configuration not stated), the “activity change, negative = inhibition” value was inactive: 10.5%. With `COC(=O)c1ccc(-c2c(-c3ccccc3)ncc3cc(OC)c(OC)cc23)cc1` the Potency was active: 56.2 µM. With `CNC(=O)c1[nH]cnc1C(=O)N[C@@H](C)C(=O)OCc1ccccc1` the Potency was active: 50.1 µM. With `Cc1cccc(N2CCN(C(=O)COc3ccc4c(c3)CCC4)CC2C)c1` (configuration not stated) the Potency was inconclusive: 79.4 µM [inhibitor, single point]. For `CC1CCN(c2nc(CN3CCCCC3)nc3scc(-c4ccccc4)c23)CC1`, the Potency was inconclusive: 39.8 µM [inhibitor, partial curve]. `COc1ccc(CN(C)Cc2c(O)ccc3ccccc23)cc1` was tested, and the “activity change, negative = inhibition” value was inactive: -2.31%. `CCCCN(CC)C(=O)c1nn(C)c2c1CSc1ccccc1-2` was tested, and the Potency was inconclusive: 56.2 µM [inhibitor, partial curve]. For `Fc1ccccc1CCNc1nnnn1-c1ccccc1`, the Potency was inconclusive: 3.98 µM [inhibitor, full curve]. In the case of `CC(=O)c1cccc(NC(=O)CSc2nc(=O)n(Cc3ccco3)c3c2CCC3)c1`, the Potency is reported as inconclusive: 89.1 µM [inhibitor, single point]. In the case of `COc1cccc(/C=N/NC(=O)CNC(=O)C2COc3ccccc3O2)c1O` (configuration not stated), the “activity change, negative = inhibition” value is reported as inactive: 11.1%. `c1ccc2c(N3CCCCC3)ncnc2c1` was tested, and the “activity change, negative = inhibition” value was inactive: -28.4%. With `NN1C(=O)/C(=C2/Sc3ccccc3N2CCCS(=O)(=O)O)SC1=S` the Potency was active: 79.4 µM. For `O=C(NCc1cccs1)c1ccc2c(c1)N(Cc1cccc(F)c1)C(=O)c1ccccc1S2`, the “activity change, negative = inhibition” value was inactive: 0.2%. In the case of `COc1nsnc1NS(=O)(=O)c1ccc(NC(=S)NC(=O)c2cccnc2)cc1`, the Potency is reported as inconclusive: 79.4 µM [inhibitor, single point]. With `CCOC(=O)Cc1cc(-c2ccc(F)cc2)nc2ccc3ccccc3c12` the “activity change, negative = inhibition” value was inactive: 5.93%. With `Oc1ccc(-c2csc(-c3c[nH]c4ccccc34)n2)c(O)c1` the Potency was inconclusive: 70.8 µM [inhibitor, single point]. In the case of `COc1ccc(CN2CCc3ccccc3C2)cc1Br`, the Potency is reported as active: 50.1 µM. For `O=C(C1CC(c2ccccc2O)=NO1)N1CCc2ccccc2C1` (configuration not stated), the Potency was inconclusive: 12.6 µM [inhibitor, single point]. `CCc1ccc(NC(=O)CN(c2ccc(Cl)cc2)S(=O)(=O)c2ccsc2C(=O)OC)cc1` was tested, and the Potency was inconclusive: 70.8 µM [inhibitor, single point]. With `CCOc1ccc(NC(=S)N(CCN2CCOCC2)Cc2ccc3c(c2)CCCN3CC)cc1` the Potency was active: 11.2 µM. With `COc1ccc(Cn2c(O)c(C=Nc3ccccc3C(=O)O)c3ccccc3c2=O)cc1` the Potency was active: 79.4 µM. In the case of `Cc1ccc(C)c(CN2C(=O)C(O)(c3c(C)[nH]c4ccccc34)c3ccccc32)c1` (configuration not stated), the Potency is reported as inconclusive: 56.2 µM [inhibitor, partial curve]. With `COc1ccc(N2CCN(CCNC(=O)CCS(=O)(=O)c3cccc4nsnc34)CC2)cc1` the Potency was inconclusive: 50.1 µM [inhibitor, partial curve]. For `O=C1NCN(c2ccccc2)C12CCN(CCCC(c1ccc(F)cc1)c1ccc(F)cc1)CC2`, the Potency was inconclusive: 44.7 µM [inhibitor, partial curve].

Source: PubChem BioAssay AID504333 (National Center for Advancing Translational Sciences (NCATS), 2011)
% is set by controls: 0 for no effect and ±100 for the full control effect; potency is the fitted concentration of half-maximal effect; tags give direction and shape of the fitted curve.
Note: nearly all actives have a fitted effect of over 60% in size.
